In all, about 39,000 compounds went through this assay and about 220 (0.56%) showed activity. The list shows a part of the results.
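Note: static incubation at 37 °C against the wild-type strain, values averaged over two biological replicates.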

The test system of the assay is Escherichia coli K-12 BW25113. In words: relative growth (OD600 normalised to plate interquartile mean) (fraction); higher = less growth inhibition, active = 0.2 or less. To be noted: 50 µM; LB; incubation time: overnight (16-24 h).
In the case of `C[C@@H]1CCCCO[C@@H](CN(C)C(=O)Nc2ccccc2)[C@@H](C)CN([C@@H](C)CO)C(=O)c2cc(NC(=O)c3ccccc3)ccc2O1`, the relative growth was inactive: 1.03.

`COc1cccc(S(=O)(=O)Nc2ccc3c(c2)[C@H]2C[C@@H](CC(=O)NCc4ccccc4F)O[C@H](CO)[C@H]2O3)c1`: the relative growth was inactive: 1.04.

With `CCC1CCC(N)CC1` (configuration not stated), the relative growth is inactive: 0.995.

Turning to `COc1ccccc1CN1C(=O)c2ccccc2[C@](Cc2ccccc2I)(C(=O)NCC(F)(F)F)[C@@H]1c1ccc(CO)cc1`, the relative growth was inactive: 1.04.

Take `COc1ccccc1C#Cc1cnc2c(c1)C(=O)N([C@H](C)CO)C[C@@H](C)[C@H](CN(C)S(=O)(=O)c1cn(C)cn1)O2`: the relative growth is inactive: 1.01.

Consider `O=C1O[C@H](c2ccccc2)[C@H](c2ccccc2)N2[C@H]1[C@@H](C(=O)N1CCN(c3ncccn3)CC1)[C@]1(C(=O)Nc3ccc(C#CC4(O)CCCCCC4)cc31)[C@H]2c1ccc(OCCO)cc1`, for which the relative growth was inactive: 1.12.

As to `CC(C(=O)O)c1ccc(CC2CCCC2=O)cc1` (configuration not stated), the relative growth was inactive: 1.14.

`COC(=O)c1c2oc(c1C(=O)OC)C(=O)N[C@@H](Cc1ccccc1)Cn1cc(nn1)[C@@H](Cc1ccccc1)NC(=O)N[C@@H](CO)CC2`: the relative growth was inactive: 0.981.

Turning to `COc1ccc(CN(C)C[C@@H]2Oc3ccc(NS(=O)(=O)c4cn(C)cn4)cc3CC(=O)N([C@@H](C)CO)C[C@@H]2C)cc1`, the relative growth was inactive: 0.988.

In the case of `C[C@H]1CN([C@@H](C)CO)C(=O)c2cc(C3=CCCC3)cnc2O[C@H]1CN(C)C(=O)c1ccc2c(c1)OCO2`, the relative growth is inactive: 1.01.

As to `C[C@@H]1CN([C@H](C)CO)C(=O)Cc2cc(NC(=O)Nc3ccccc3)ccc2O[C@H]1CN(C)Cc1ccc(Oc2ccccc2)cc1`, the relative growth was inactive: 1.02.

For `C[C@@H]1CN([C@H](C)CO)S(=O)(=O)c2ccc(-c3cccc(C#N)c3)cc2O[C@@H]1CN(C)C(=O)c1cccnc1`, the relative growth is inactive: 1.01.

Regarding `C[C@H](CO)N1C[C@H](C)[C@@H](CN(C)S(=O)(=O)c2ccccc2C#N)OCc2cnnn2CCCC1=O`, the relative growth is inactive: 0.98.

On to `COc1ccc(NC(=O)Nc2ccc3c(c2)CC(=O)N([C@@H](C)CO)C[C@@H](C)[C@@H](CN(C)C(=O)Nc2ccc(C(F)(F)F)cc2)O3)cc1`, for which the relative growth is inactive: 1.03.

As to `C[C@@H]1CN([C@H](C)CO)C(=O)c2cc(-c3cccc(C(=O)N(C)C)c3)cnc2O[C@@H]1CN(C)S(=O)(=O)c1ccc(F)cc1`, the relative growth is inactive: 0.972.

Consider `CO[C@H]1CN(C)C(=O)c2cc(NC(=O)c3ccccc3)ccc2OC[C@@H](C)N(C(=O)CN(C)C)C[C@H]1C`, for which the relative growth is inactive: 0.977.

Take `c1cc([C@@H]2CNCCN2)[nH]n1`: the relative growth is inactive: 1.05.

For the compound `CN([NH2+][O-])c1ccc(O)c(O)c1`, the relative growth is inactive: 1.02.

In the case of `CC(C)(C)c1cc2[nH]c(N)nc(=N)n2n1`, the relative growth is inactive: 1.01.

Turning to `COc1ccc2c3c([nH]c2c1)[C@H](CO)N(C[C@]13CN(C1)S(=O)(=O)C)C(=O)C1CCOCC1`, the relative growth was inactive: 1.

As for `NCc1ccccc1CN1CCOCC1`, the relative growth was inactive: 1.01.

For the compound `C[C@H](CO)N1C[C@H](C)[C@@H](CN(C)Cc2ccc(C(F)(F)F)cc2)OCCCC[C@H](C)Oc2ccc(NS(=O)(=O)c3cccs3)cc2C1=O`, the relative growth was inactive: 0.949.

For `COc1ccc(COC[C@@]23Oc4ccccc4[C@@H](NC(=O)N2C)[C@H]3COC(=O)NCCCCCC(=O)NO)cc1`, the relative growth was inactive: 0.996.

Regarding `C[C@@H]1CN([C@@H](C)CO)C(=O)c2cc(NS(=O)(=O)c3cn(C)cn3)ccc2O[C@H]1CN(C)S(=O)(=O)c1ccccc1`, the relative growth was inactive: 0.989.

In the case of `C[C@@H]1CN([C@@H](C)CO)C(=O)c2cc(C#Cc3ccccc3)cnc2O[C@H]1CN(C)C(=O)CCN1CCCCC1`, the relative growth is inactive: 1.04.

For the compound `O=C(C[C@@H]1CC[C@@H]2[C@H](COC[C@@H](O)CN2C(=O)Nc2cccc(Cl)c2)O1)NCCCN1CCOCC1`, the relative growth is inactive: 0.934.

Take `CON=C(C(=O)NC1C(=O)N2C(C(=O)OC(C)OC(C)=O)=C(COC(N)=O)CSC12)c1ccco1` (configuration not stated): the relative growth was inactive: 0.881.

On to `C[C@@H]1CN([C@@H](C)CO)C(=O)c2cc(NC(=O)NC3CCCCC3)ccc2O[C@@H](C)CCCCO[C@H]1CN(C)S(=O)(=O)c1ccc(F)cc1`, for which the relative growth was inactive: 0.996.

Take `C[C@H](CO)N1C[C@H](C)[C@@H](CN(C)C(=O)Nc2ccc3c(c2)OCO3)Oc2ccc(NC(=O)CCN3CCOCC3)cc2C1=O`: the relative growth is inactive: 1.

As for `COc1ccc(NC(=O)N(C)C[C@@H]2Oc3ccc(NC(=O)CCCCCC(=O)Nc4ccccc4N)cc3CC(=O)N([C@H](C)CO)C[C@H]2C)cc1`, the relative growth is inactive: 0.985.

As for `COc1ccc(NC(=O)Nc2cccc3c2O[C@H](CN(C)C(=O)Nc2ccc(C(F)(F)F)cc2)[C@H](C)CN([C@@H](C)CO)C3=O)cc1`, the relative growth was inactive: 0.931.

With `C[C@H]1CCCCO[C@H](CN(C)C(=O)C2CCCCC2)[C@@H](C)CN([C@@H](C)CO)C(=O)c2cc(NC(=O)Nc3cccc4ccccc34)ccc2O1`, the relative growth was inactive: 1.03.

With `CN1C(=O)c2cc(NC(=O)C3CCCC3)ccc2OC[C@H]2O[C@@H](CC(=O)NCCc3ccncc3)CC[C@H]21`, the relative growth is inactive: 0.994.

As for `N[C@H](CC(=O)O)C(=O)O`, the relative growth was inactive: 1.01.

As for `O=C1O[C@H](c2ccccc2)[C@H](c2ccccc2)N2[C@H]1[C@@H](C(=O)O)[C@]1(C(=O)Nc3ccc(C#CC4=CCCCC4)cc31)[C@H]2c1ccc(O)cc1`, the relative growth is inactive: 0.974.

Take `C[C@H](CO)N1C[C@H](C)[C@H](CN(C)C(=O)Nc2ccc3c(c2)OCO3)Oc2ccc(NC(=O)Nc3ccc(C(F)(F)F)cc3)cc2C1=O`: the relative growth was inactive: 0.992.

`CC(C)=CCC/C(C)=C/CC/C(C)=C/CC/C(C)=C/CO`: the relative growth is inactive: 1.1.

`C[C@H](CO)N1C[C@H](C)[C@@H](CN(C)CC2CCCCC2)OCCCC[C@H](C)Oc2ccc(NS(=O)(=O)c3ccc(Cl)cc3)cc2C1=O`: the relative growth is inactive: 0.992.

As for `C[C@@H]1CN([C@@H](C)CO)C(=O)Cc2cc(NC(=O)Nc3ccc(C(F)(F)F)cc3)ccc2O[C@@H]1CN(C)S(C)(=O)=O`, the relative growth was inactive: 0.978.

Regarding `Cc1noc(C)c1NC(=O)Nc1ccc2c(c1)C(=O)N([C@@H](C)CO)C[C@H](C)[C@@H](CN(C)Cc1ccc3c(c1)OCO3)OCCCC[C@H](C)O2`, the relative growth was inactive: 0.991.

On to `COc1cc2c(cc1OC)C1C(=O)c3c(O)cc4c(c3OC1CO2)C=CC(C)(C)O4` (stereo not drawn) [alpha-TOXICAROL (dl)], for which the relative growth is inactive: 1.08.

For `COC(=O)c1c(CC[C@@H](CO)NC(=O)N[C@@H](Cc2ccccc2)Cn2cc(C3(O)CCCCC3)nn2)oc(C(C)=O)c1C(=O)OC`, the relative growth was inactive: 1.01.

Turning to `C[C@H](CO)N1C[C@H](C)[C@@H](CN(C)C(=O)NC2CCCCC2)Oc2ccc(NS(=O)(=O)c3cn(C)cn3)cc2C1=O`, the relative growth was inactive: 1.01.

Take `CCOC(=O)N1CCC(=C2c3ccc(Cl)cc3CCc3cccnc32)CC1`: the relative growth was inactive: 0.852.

Consider `C[C@@H]1CN([C@H](C)CO)C(=O)CCCn2nncc2CO[C@H]1CN(C)Cc1ccc(C(=O)Nc2ccccc2N)cc1`, for which the relative growth is inactive: 1.01.

`COc1ccc(NC(=O)N(C)C[C@@H]2Oc3ccc(NC(=O)C4CC4)cc3CC(=O)N([C@H](C)CO)C[C@@H]2C)cc1`: the relative growth was inactive: 0.994.

On to `COc1ccc(NC(=O)Nc2ccc3c(c2)C(=O)N([C@H](C)CO)C[C@@H](C)[C@@H](CN(C)C(=O)NC2CCCCC2)OCCCC[C@@H](C)O3)cc1`, for which the relative growth is inactive: 1.04.

Take `C[C@@H]1CN([C@@H](C)CO)C(=O)c2cc(NC(=O)CCC(F)(F)F)ccc2O[C@@H](C)CCCCO[C@@H]1CN(C)Cc1ccc(C(F)(F)F)cc1`: the relative growth is inactive: 1.05.

For the compound `C[C@@H]1CCCCO[C@@H](CN(C)C(=O)Nc2ccc(F)cc2)[C@H](C)CN([C@H](C)CO)C(=O)c2cc(NC(=O)Nc3ccccc3)ccc2O1`, the relative growth was inactive: 1.02.

`Cc1cc(/C=N/O)[nH]c(=O)n1`: the relative growth was inactive: 1.02.

On to `C[C@@H]1CN([C@H](C)CO)C(=O)Cc2cc(NC(=O)Cc3ccccc3)ccc2O[C@H]1CN(C)S(=O)(=O)c1cn(C)cn1`, for which the relative growth is inactive: 0.996.

In the case of `C[C@@H]1CN([C@H](C)CO)C(=O)c2cc(NC(=O)Nc3ccc(F)cc3)ccc2O[C@H]1CN(C)Cc1ccc(C(F)(F)F)cc1`, the relative growth was inactive: 0.99.

For `C[C@H](CO)N1C[C@H](C)[C@H](CN(C)CC2CCCCC2)OCCCC[C@H](C)Oc2ccc(NC(=O)Cc3ccccc3)cc2C1=O`, the relative growth is inactive: 0.981.

As to `CNS(=O)(=O)c1ccc(C)cc1`, the relative growth was inactive: 0.986.

For the compound `CC(=O)N[C@H]1CC[C@@H](CCNC(=O)C2CC2)O[C@@H]1CO`, the relative growth was inactive: 0.978.

On to `Cc1noc(C)c1S(=O)(=O)Nc1ccc2c(c1)CC(=O)N([C@@H](C)CO)C[C@H](C)[C@@H](CN(C)Cc1ccccc1)O2`, for which the relative growth is inactive: 0.986.

On to `C[C@H](CO)N1C[C@H](C)[C@H](CN(C)S(C)(=O)=O)OCCCC[C@H](C)Oc2ccc(NS(=O)(=O)c3ccccc3)cc2C1=O`, for which the relative growth is inactive: 0.991.

In the case of `CN(CC(N)=O)S(=O)(=O)c1ccc(F)cc1`, the relative growth is inactive: 0.949.

`NC(=O)c1ccccc1O`: the relative growth was inactive: 1.15.

Regarding `C[C@@H]1CN([C@H](C)CO)C(=O)c2cc(NC(=O)CCC(F)(F)F)ccc2O[C@@H]1CN(C)C(=O)Nc1ccc(C(F)(F)F)cc1`, the relative growth is inactive: 1.02.

For the compound `C[C@H]1CN([C@@H](C)CO)S(=O)(=O)c2ccc(C3=CCCCC3)cc2O[C@H]1CN(C)S(=O)(=O)c1cn(C)cn1`, the relative growth is inactive: 1.01.

As for `C[C@@H]1CN([C@H](C)CO)C(=O)c2cc(NC(=O)CCC(F)(F)F)ccc2O[C@@H](C)CCCCO[C@@H]1CN(C)C(=O)NC1CCCCC1`, the relative growth was inactive: 0.983.

For the origin of these results see the supplement of paper PMC9446081.
